Source: PubChem BioAssay AID588855 (National Center for Advancing Translational Sciences (NCATS), 2011)
About 5,000 (1.2%) of roughly 410,000 compounds were called active. Inconclusive results, whose numbers are uncertain, are shown with a selection of clear calls. The call rests on the fitted dose curve; in most records, active means well fitted inhibition curve with a large enough effect; inconclusive means small, poorly fitted or top-dose-only effect; inactive means no such curve, though single readings can be large or run the other way. Potencies of inconclusive entries are doubtful fits and often do not repeat.

experiment: qHTS for Inhibitors of TGF-b; conditions: HepG2 CAGA-GFP TGF-b/SMAD3 reporter, GFP fluorescence, 18 h, TGF-beta stimulated, 500 pg/mL final; series mostly up to 46.1 µM; further: nearly all actives have a fitted effect of over 65% in size
In short: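 HEPG2 CAGA-GFP cells (1000/well, DMEM with 1% FBS) were pre-incubated 2 h at 37 degrees C, given compound by pin tool, then stimulated with TGF-beta at 500 pg/mL final for 18 h before per-cell GFP fluorescence imaging.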
Potency means the concentration at half of the fitted maximal effect; tags describe the fitted curve by direction and shape.

SMILES	Potency
CC(=O)NC(c1ccco1)c1ccc2cccnc2c1O (stereo unspecified)	inconclusive: 11.2 µM [inhibitor, single point]
O=S(=O)(NCCC1=CCCCC1)c1cccc(Br)c1	inconclusive: 35.5 µM [inhibitor, single point]
O=[N+]([O-])c1cc([N+](=O)[O-])c2cc3ccccc3nc2c1	inconclusive: 2.82 µM [inhibitor, partial curve, poor fit]
CN(C)c1ccc(N/C=C/C(=O)C(C)(C)C)cc1	inconclusive: 15.8 µM [inhibitor, single point]
CC(C)=CCc1cc([C@@H]2CC(=O)c3ccc(O)c(CC=C(C)C)c3O2)ccc1O	active: 12.6 µM
Cc1ccc(N(Cc2ccc([N+](=O)[O-])cc2)C(=O)c2ccco2)cc1	inconclusive: 35.5 µM [inhibitor, single point]
Cc1ccc(Cn2c(C3CCCN3c3nc(C)cs3)nc3cc(C(=O)NCCCO)ccc32)cc1 (stereo unspecified)	inconclusive: 6.31 µM [inhibitor, single point]
Cc1cccc(CN2Cc3cccc4c3[C@H](C=CC4)CC2=S)c1	inactive
CCOc1ccc(OCC)c(NS(=O)(=O)c2ccc3c(c2)n(C)c(=O)c(=O)n3C)c1	inactive
O=S(=O)(N/N=C/c1cn(Cc2ccccc2)c2ccccc12)c1ccccc1	inconclusive: 11.2 µM [inhibitor, partial curve]
Cc1ccc(-n2nc3c(N4CCCC(C(=O)NCc5ccccc5C)C4)nnc(C)c3c2C)cc1 (stereo unspecified)	inconclusive: 4.47 µM [inhibitor, full curve]
Cc1ccc(S(=O)(=O)NCC2CCC(C(=O)NCc3ccco3)CC2)cc1 (stereo unspecified)	inconclusive: 35.5 µM [inhibitor, single point]
O=S1(=O)CCOC[C@H](Cc2ccccc2)N1Cc1cccc(F)c1	inconclusive: 5.01 µM [inhibitor, single point]
CC(C)C[C@H](NC(=O)c1[nH]cnc1C(=O)N[C@@H](Cc1ccccc1)C(=O)OCc1ccccc1)C(=O)OC(C)(C)C	inconclusive: 35.5 µM [inhibitor, single point]
Cc1ccc(NS(=O)(=O)c2sc3ccc(Cl)cc3c2C)cc1	inconclusive: 31.6 µM [inhibitor, single point]
O=C(c1cnn2c1NC(c1ccc(Br)cc1)CC2C(F)(F)F)N1CCN2CCCC2C1 (stereo unspecified)	inconclusive: 17.8 µM [inhibitor, single point]
O=C(c1ccc2c(c1)[nH]c(=S)n1c3ccccc3nc21)N1CCN(c2cccc(Cl)c2)CC1	inactive
NC(=O)c1c(NC(=O)COC(=O)c2ccc(O)c(Cl)c2)sc2c1CCCC2	inactive
COc1ccc(/C=C(/NC(=O)c2ccco2)C(=O)N2CCCCC2)cc1	inconclusive: 6.31 µM [inhibitor, single point]
CCc1ccc(N2CC(C(=O)Nc3ccc(F)cc3)CC2=O)cc1 (stereo unspecified)	inconclusive: 35.5 µM [inhibitor, single point]
C/C(=N\N(c1ccccc1)c1ccccc1)c1ccc(N)cc1	inconclusive: 25.1 µM [inhibitor, single point]

SMILES	Potency
CCN(CC)CCN(C(=O)c1cc(Cl)sc1Cl)c1nc2cc3c(cc2s1)OCO3	inconclusive: 6.31 µM [inhibitor, single point]
CN(C(=O)c1cccc(NC(=O)Cc2ccc(NC(=O)C3CCN(C(=O)CCc4ccccc4)CC3)cc2)c1)C1CCCCC1	inactive
COc1ccc([C@H]2C[C@H](O)[C@@H](n3cc(-c4ccc(F)cc4)nn3)CN2C(=O)c2cccs2)cc1	inactive
O=C1Nc2c(Cl)cc(Cl)cc2C1=O	inconclusive: 22.4 µM [inhibitor, single point]
O=C1C2CC=CCC2C(=O)N1Cc1nnc(-c2ccccc2Br)o1 (stereo unspecified)	inconclusive: 10 µM [inhibitor, partial curve, poor fit]
Cc1cc(C)n2c(Nc3ccc4c(c3)OCCO4)c(-c3ccccc3)nc2n1	inconclusive: 25.1 µM [inhibitor, single point]
COc1cccc(OC)c1C(=O)NC(=S)N1CCN(c2ccc(C(F)(F)F)cc2[N+](=O)[O-])CC1	inactive
CCC(=O)c1ccccc1OCCCN1CCC(Cc2ccccc2)CC1	inconclusive: 35.5 µM [inhibitor, single point]
CCOC(=O)c1nn(-c2ccccc2)c(C#N)c1NC(=O)c1nn(CC)cc1Br	inconclusive: 17.8 µM [inhibitor, single point]
COc1cc(OC)c2c(-c3cccc(-c4ccc(C(F)(F)F)cc4)c3)cc(=O)oc2c1	inconclusive: 15.8 µM [inhibitor, single point]
C[C@H](NC(=O)c1nc[nH]c1C(=O)NCc1ccc(CNC(=O)OC(C)(C)C)cc1)C(=O)OCc1ccccc1	inconclusive: 35.5 µM [inhibitor, single point]
CCN1CCN(CCCNC(=O)c2cc3c(=O)[nH]c4ccccc4c3s2)CC1	inactive
O=C(N/N=C/c1cc(Br)c(O)c(Br)c1)c1cccc(C(F)(F)F)c1	inconclusive: 3.55 µM [inhibitor, full curve]
CN1C(=O)/C(=C/c2cn(CC(=O)N3CCCCC3)c3ccccc23)NC1=S	inactive
CC(C)Cc1cc(CN2CCC(CO)(Cc3cccc(C(F)(F)F)c3)CC2)[nH]n1	inconclusive: 35.5 µM [inhibitor, single point]
Cc1cc(F)ccc1NC(=O)CCS(=O)(=O)c1cc2c3c(c1)CCN3C(=O)CC2	inconclusive: 2.82 µM [inhibitor, full curve]
CCN(CC)C(=O)c1sc2c(c1C)c(=O)n(-c1ccc(C)c(C)c1)c(=O)n2CC(=O)Nc1ccc(OC)cc1OC	inactive
O=C(c1ccccc1)N1CCC(c2nc3ccccc3o2)CC1	inactive
COc1ccc(CCNC(=O)c2cnn(-c3cccc(C)c3)c2C2CCNCC2)cc1OC	inconclusive: 17.8 µM [inhibitor, single point]
CN1C(=O)Cc2cc(S(=O)(=O)CCC(=O)Nc3ccc(Cl)cc3)ccc21	inconclusive: 11.2 µM [inhibitor, single point]
